Only a part is listed here, and it is no random draw. The list includes weakly bound sequences.

This assay has as its target T1, GST-Dm-Relish (UniProt Q94527).
T1 sequence: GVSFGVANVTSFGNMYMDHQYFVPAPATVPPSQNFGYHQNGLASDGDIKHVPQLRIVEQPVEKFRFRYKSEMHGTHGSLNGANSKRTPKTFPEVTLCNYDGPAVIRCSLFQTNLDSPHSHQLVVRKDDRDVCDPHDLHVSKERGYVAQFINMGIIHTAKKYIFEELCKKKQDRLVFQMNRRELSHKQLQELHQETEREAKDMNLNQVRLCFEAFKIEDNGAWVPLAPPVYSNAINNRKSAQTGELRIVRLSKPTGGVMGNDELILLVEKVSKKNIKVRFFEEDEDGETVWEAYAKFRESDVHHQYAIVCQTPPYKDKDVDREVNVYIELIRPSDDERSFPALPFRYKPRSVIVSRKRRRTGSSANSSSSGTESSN
Put plainly: protein-binding microarray (PBM). The conditions noted are these: PBM: ~300 nM protein, 6 mM HEPES pH 7.8, 80 mM KCl, 0.5 mM EDTA, 0.5 mM EGTA, 6% glycerol, 35 ng/ul poly-dIdC, 1% milk, 1 h, room temperature; Ap Aiptasia and Nv Nematostella (sea anemones) / Co Capsaspora / Aq Amphimedon (sponge) / Dm Drosophila / Hu human; RHD is the Rel homology domain; high values mean tight binding; most listed sequences are background and not binding sites; double strand, one strand shown.
On to “CCGATTAACATCAGGGGATTAACTGATGTTAATCGGGTCTTGATTCGCTTGACGCTGCTG”, for which the binding signal turned out to be 8.54 z-score. As for “CCGATTAACATCAGGCAATTCCCTGATGTTAATCGGGTCTTGATTCGCTTGACGCTGCTG”, the figure is 2.03 z-score; as for “CCGATTAACATCAAATGTGGGAATGATGTTAATCGGGTCTTGATTCGCTTGACGCTGCTG”, 0.702 z-score.

The record behind these values is article PMC5700166.
